Paper PMC4336329 (PLoS ONE, 2015)
Hit rate of the full screen: of about 310,000 compounds, about 2,200 (0.71%) showed an effect of 50% or more. Effects have a minus sign here. The list shows a part of the results.

Molecular target: human ether-à-go-go-related gene (hERG) potassium channel (human, UniProt Q12809)
Assay: primary screen, population patch clamp on CHO cells stably expressing hERG

Chain of human ether-à-go-go-related gene (hERG) potassium channel (Q12809 whole entry, looked up): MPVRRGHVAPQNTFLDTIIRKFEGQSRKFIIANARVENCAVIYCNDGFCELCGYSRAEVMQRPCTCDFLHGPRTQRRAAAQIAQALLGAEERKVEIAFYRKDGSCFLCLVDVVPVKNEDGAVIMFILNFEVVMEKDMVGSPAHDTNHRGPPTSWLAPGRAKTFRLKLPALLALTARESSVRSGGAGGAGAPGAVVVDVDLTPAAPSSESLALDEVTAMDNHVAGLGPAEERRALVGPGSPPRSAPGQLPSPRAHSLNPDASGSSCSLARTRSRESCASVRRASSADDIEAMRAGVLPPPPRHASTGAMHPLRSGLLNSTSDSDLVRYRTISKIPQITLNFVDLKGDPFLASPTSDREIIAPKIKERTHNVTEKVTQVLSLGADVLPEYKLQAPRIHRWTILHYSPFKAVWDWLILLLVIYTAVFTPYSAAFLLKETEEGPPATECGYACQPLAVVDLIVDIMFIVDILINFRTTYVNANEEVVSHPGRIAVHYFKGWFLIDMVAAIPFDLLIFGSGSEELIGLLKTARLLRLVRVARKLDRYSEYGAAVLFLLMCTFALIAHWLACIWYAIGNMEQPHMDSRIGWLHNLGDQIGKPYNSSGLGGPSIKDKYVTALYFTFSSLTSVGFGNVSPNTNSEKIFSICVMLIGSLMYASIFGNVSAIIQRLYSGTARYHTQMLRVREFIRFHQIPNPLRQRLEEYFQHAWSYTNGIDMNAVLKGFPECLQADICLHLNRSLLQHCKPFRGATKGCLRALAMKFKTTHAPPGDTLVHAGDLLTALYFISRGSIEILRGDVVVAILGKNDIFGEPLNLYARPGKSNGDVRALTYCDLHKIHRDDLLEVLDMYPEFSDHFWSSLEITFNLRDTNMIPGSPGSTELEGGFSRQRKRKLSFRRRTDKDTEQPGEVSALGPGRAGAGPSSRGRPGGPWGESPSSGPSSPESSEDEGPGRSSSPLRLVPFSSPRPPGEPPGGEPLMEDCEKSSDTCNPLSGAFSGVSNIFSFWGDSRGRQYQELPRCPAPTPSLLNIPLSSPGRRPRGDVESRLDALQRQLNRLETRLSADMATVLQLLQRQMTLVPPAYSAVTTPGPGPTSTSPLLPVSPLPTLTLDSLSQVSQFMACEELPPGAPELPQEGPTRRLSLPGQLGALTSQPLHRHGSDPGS

Row | Compound | hERG current change (%, negative = inhibition) at 1uM [%]
1 | O=C(CSc1cn[nH]n1)Nc1ccccc1C(=O)O | 11.5
2 | COc1ccc(OC)c(CC(NC(C)=O)C(=O)NC2CCN(c3nc(OC)nc(OC)n3)CC2)c1 (stereo not drawn) | 25
3 | COc1cc2c3nnc(-c4ccc(F)cc4)c-3cn(Cc3cccc(C)c3)c2cc1OC | 9.33
4 | Cc1ccc(OCC(=O)NCc2ccco2)c([N+](=O)[O-])n1 | -20.3
5 | CCCS(=O)(=O)N1CCC(C(=O)NCc2cccnc2)CC1 | 12.2
6 | Cc1cccnc1NC(=O)Cn1nc([N+](=O)[O-])cc1C | 4.82
7 | Cc1c(NC2=NC3(CCCCC3)Cc3ccccc32)c(=O)n(-c2ccccc2)n1C | -8.67
8 | Cc1cnc(C(=O)Nc2ccc(S(=O)(=O)NCC(C)C)cc2)cn1 | 26.8
9 | COc1cc2c(cc1OC)C(C(=O)NCCN(C)C)C(c1cccs1)N(C)C2=O (stereo not drawn) | 3.56
10 | CN(CC(=O)Nc1ccccc1Cl)C(=O)CSc1nnc(-c2ccco2)o1 | 7.49
11 | CC(=O)N(CCOc1ccccc1)CCOc1ccccc1 | 9.29
12 | Cc1nc2nc(C)c(NS(=O)(=O)c3ccc(C4CCCCC4)cc3)c(=O)n2[nH]1 | 12.9
13 | COc1cccc(-c2noc(CCC(=O)NCCc3ccccc3)n2)c1 | 10.5
14 | CCOc1ccc(NS(=O)(=O)c2ccc(C(=O)N3CCCCCC3)cc2)cc1 | -6.49
15 | COc1ccc(NC(=O)C2CC(c3ccccc3O)=NO2)cc1OC (stereo not drawn) | 12
16 | O=C(O)c1sc2cccc(Cl)c2c1Cl | 12.8
17 | O=C(C[n+]1ccccc1)N/N=C/c1ccc(C(=O)O)cc1.[Cl-] | 7.13
18 | COC(=O)c1ccccc1S(=O)(=O)N1CCC(C(=O)OCC(=O)NC2CCCCC2C)CC1 (stereo not drawn) | 4.02
19 | Cc1noc(-c2ccccc2)c1NC(=O)Nc1ccc(Cl)cc1 | 11.9
20 | COc1ccc(OC)c(CNC(=O)CCCc2cn(C)c3ccccc23)c1 | 10.9
21 | COC(=O)C1=C(c2ccccc2)C[C@@H]2CC[C@H]1N2C(=O)NCc1ccc(F)cc1 | 3.84
22 | CCc1nnc(NC(=O)CSc2ncnc3scc(-c4ccc(C)cc4)c23)s1 | 2.98
23 | COc1ccc(-c2cc3cc(OC)c(OC)cc3cn2)cc1OC.Cl | 10.2

Row | Compound | hERG current change (%, negative = inhibition) at 1uM [%]
24 | COc1ccc(CCn2c(O)c(/C=N/NC(=O)c3ccncc3)c(=O)[nH]c2=O)cc1OC | 12.1
25 | CCOC(=O)C(CCCCCOc1ccc([N+](=O)[O-])cc1)C(=O)OCC | 3.22
26 | COc1cc(/C=C/[N+](=O)[O-])ccc1OC(=O)c1cc2ccccc2oc1=O | 13.5
27 | Cc1cc(NC(=O)/C=C/C(=O)N(CC(=O)NC2CCCC2)c2ccc(F)cc2)no1 | 6.93
28 | CC1(C)C2CCC(C2)C1(C)NC(=O)CNCc1cccs1.Cl (stereo not drawn) | 11
29 | COC(=O)c1ccc2nccnc2c1 | 7.39
30 | CCOC(=O)Nc1ccc(C(=O)/C=C/c2ccccc2)cc1 | 4.99
31 | c1ccc(-c2noc(CC3CCCCC3)n2)cc1 | 10.6
32 | O=C(CN1CCN(C2CCCCC2)CC1)c1ccc2cc[nH]c2c1 | 8.47
33 | CCc1ccc2oc(C(=O)N3CCN(c4ccccc4OC)CC3)cc(=O)c2c1 | -57.4
34 | CCOc1ccc(N=C2NC(=O)S/C2=C\c2ccc(Cl)cc2)cc1 | 10.4
35 | Cc1ccc(NC(=O)CSc2sc3c(O)cc(=O)[nH]c3c2C#N)c(F)c1 | -4.66
36 | O=C(Nc1nnc(SCCN2CCOCC2)s1)C1CC(=O)N(c2ccc(F)cc2)C1 (stereo not drawn) | 11.5
37 | Cc1ccccc1OCc1nnc(SCC(=O)NCc2ccccc2)n1C | 1.47
38 | Cc1ccc(S(=O)(=O)N(CC(=O)O)c2ccc(Cl)c(C(F)(F)F)c2)cc1 | 7.51
39 | CCOC(=O)C(C)(C)Sc1nc2c(cnn2-c2ccc(F)cc2)c(=O)[nH]1 | 10.4
40 | CCn1c(C2CC(=O)N(c3cc(C)cc(C)c3)C2)nc2ccccc21 (stereo not drawn) | 7.31
41 | CCN(CC)C(=O)c1ccc(NS(=O)(=O)c2ccc3[nH]c(=O)[nH]c3c2)cc1 | 14.1
42 | CC(C)CCNC(=O)C1CC(c2ccccc2C(F)(F)F)=NO1 (stereo not drawn) | -5.2
43 | CSC(=NS(=O)(=O)c1ccccc1)SC | 16.8
44 | Cc1cccc2sc(N3CCN(C(=O)C4COc5ccccc5O4)CC3)nc12 (stereo not drawn) | 0.776
45 | COCCCNC(=O)C(CC(N)=O)NC(=O)OCc1ccccc1 (stereo not drawn) | 8.28
